# Measurements: the supplement of paper PMC11348887
# Values joined by “and” are separate entries in the source; they are usually repeats but may differ in a detail not shown here. Equal values may be shown once. Where a name gives a salt, the structure may show the parent alone. This is one part of the list. Rule as the data show it: active = -2 or less and inactive = the rest. Many values rest on one well or one pass, so single values are uncertain.
# Tested on: hPSC-derived cortical neurons (WA09)
# Assay: nuclei number (viability) z-score; higher = more surviving cells
# Details: 5 µM; treatment: days 7-14 after plating, readout day 21
# 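Also: nuclei counted from DAPI counterstain by automated high-content image analysis, four fields per well at ×20 in 384-well plates, with sequential b-score then z-score normalization.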
row,Structure (SMILES),nuclei number (z-score)
1,C[C@H]1CNCCCN1S(=O)(=O)c1cccc2cncc(F)c12 [Ripasudil (K-115) hydrochloride dihydrate],inactive: 1.17
2,CC(=O)O[C@]1(C(C)=O)CC[C@H]2[C@@H]3C[C@H](C)C4=CC(=O)CC[C@]4(C)[C@H]3CC[C@@]21C [Medroxyprogesterone acetate],inactive: 0.226
3,O=C(O)c1cc(-c2ccccc2)nc2ccccc12 [Cinchophen],inactive: 0.364
4,COc1cc2c(Oc3ccc4[nH]c(C)cc4c3F)ncnc2cc1OCCCN1CCCC1 [Cediranib (AZD2171)],inactive: -0.897
5,CCOC(=O)Nc1cc(-c2ccc(C)c(NS(C)(=O)=O)c2)nn2c(C)nnc12 [Bromosporine],inactive: -0.921
6,Cc1cc2c(F)c(Oc3ncnn4cc(OC[C@@H](C)OC(=O)[C@H](C)N)c(C)c34)ccc2[nH]1,inactive: 0.669
7,C[C@@H]1CCN(C(=O)CC#N)C[C@@H]1N(C)c1ncnc2[nH]ccc12,inactive: 3.86 and inactive: 4.01
8,C#CC[C@H](c1nc2cc(Cl)ccc2c(=O)n1Nc1ccccc1)N(CCCN)C(=O)c1cccc(Cl)c1F,active: -5.5
9,O=S(=O)(O)NC1CCCCC1 [Cyclamic  acid],inactive: 0.721
10,O=C(NCCO)c1cccc(-c2cc(Nc3ccc(OC(F)(F)F)cc3)ncn2)c1,inactive: 0.263
11,COCC[n+]1c2c(n(Cc3cnccn3)c1C)C(=O)c1ccccc1C2=O [YM155 (Sepantronium Bromide)],inactive: -1.89
12,COc1ccc([C@]2(C#N)CC[C@@H](C(=O)O)CC2)cc1OC1CCCC1 [Cilomilast],inactive: -0.00162
13,CCCOc1ccn2c(C(C)=O)cc(-c3ccccc3S(C)(=O)=O)c2c1,inactive: 1.15
14,CC(/C=C1\SC(=S)N(CC(=O)O)C1=O)=C\c1ccccc1 [Epalrestat],inactive: -0.416
15,O=C1c2ccccc2C(=O)c2c1ccc(O)c2O [Alizarin],inactive: 0.67
16,Cc1nc(=O)c2cc(CN(C)c3ccc(C(=O)N[C@@H](CCC(=O)O)C(=O)O)s3)ccc2[nH]1 [Raltitrexed],inactive: -0.376
17,CN1CCN(CCCN2c3ccccc3Sc3ccc(Cl)cc32)CC1 [Prochlorperazine dimaleate salt],active: -7.38
18,CC(=O)[C@]1(O)Cc2c(O)c3c(c(O)c2[C@@H](O[C@H]2C[C@H](N)[C@H](O)[C@H](C)O2)C1)C(=O)c1ccccc1C3=O [Idarubicin HCl],active: -5.69
19,O=c1oc2ccccc2c(O)c1Cc1c(O)c2ccccc2oc1=O [Dicoumarol],inactive: 0.517
20,CS(=O)(=O)N1CCc2c(-c3cnc(N)nc3)nc(N3CCOCC3)nc21,inactive: 0.775
21,CC[C@H](C)C(=O)O[C@H]1CCC=C2C=C[C@H](C)[C@H](CC[C@@H]3C[C@@H](O)CC(=O)O3)[C@H]21 [Mevastatin],inactive: -0.306
22,Nc1cc(C(Cl)=C(Cl)Cl)c(S(N)(=O)=O)cc1S(N)(=O)=O [Clorsulon],inactive: 2.23

row,Structure (SMILES),nuclei number (z-score)
1,Cc1ccccc1CN1C2=NCCN2C(=O)C2=C1CCN(Cc1ccccc1)C2 [TIC10 Analogue],inactive: -0.813
2,C1CNCCN1 [Piperazine],inactive: 0.884
3,NCCOCCOCCNC(=O)Cc1ccc(Nc2nc(NCc3ccc(F)cc3)nc(NCC3CCCCC3)n2)cc1 [AP-III-a4 (ENOblock)],active: -5.59
4,CC(C)CC(CC(=O)NO)C(=O)N[C@@H](Cc1ccc2ccccc2c1)C(=O)N[C@@H](C)C(=O)NCCN (stereo not given in full),inactive: 0.0895
5,C=CC(=O)Nc1cccc(Oc2nc(Nc3ccc(N4CCN(C)CC4)cc3OC)ncc2Cl)c1,inactive: -0.327
6,O=C(/C=C/c1ccc(O)c(O)c1)OCCc1ccccc1 [Caffeic Acid Phenethyl Ester],inactive: -1.83
7,CC(=O)OCC(CCn1cnc2cnc(N)nc21)COC(C)=O [Famciclovir],inactive: 0.606
8,COc1ccc([C@@H]2CC(=O)c3c(O)cc(O[C@@H]4O[C@H](CO)[C@@H](O)[C@H](O)[C@H]4O[C@@H]4O[C@@H](C)[C@H](O)[C@@H](O)[C@H]4O)cc3O2)cc1O [Neohesperidin],active: -3.96
9,NNc1nncc2ccccc12 [Hydralazine HCl],inactive: -1.47
10,C[C@H](CCC(=O)O)[C@H]1CC[C@H]2[C@@H]3[C@H](O)C[C@@H]4C[C@H](O)CC[C@]4(C)[C@H]3CC[C@]12C [Chenodeoxycholic Acid],inactive: -0.0665
11,CCN1CCN(C(=O)N[C@@H](C(=O)N[C@@H]2C(=O)N3[C@@H]2SC(C)(C)[C@@H]3C(=O)O)c2ccccc2)C(=O)C1=O [Piperacillin Sodium],inactive: 0.272
12,CO[C@@H]1[C@@H](OC(N)=O)[C@@H](O)[C@H](Oc2ccc3c(O)c(NC(=O)c4ccc(O)c(CC=C(C)C)c4)c(=O)oc3c2C)OC1(C)C [Novobiocin Sodium],inactive: 0.544
13,CN(NC(=O)CC(=O)NN(C)C(=S)c1ccccc1)C(=S)c1ccccc1 [Elesclomol (STA-4783)],inactive: -0.251
14,O=C(O[C@H]1CN2CCC1CC2)N1CCc2ccccc2[C@@H]1c1ccccc1 [Solifenacin succinate],inactive: -0.666
15,NC(=O)N/N=C/c1ccc([N+](=O)[O-])o1 [Nitrofural],inactive: 0.19
16,CC(C)C[C@H](NC(=O)[C@H](CCc1ccccc1)NC(=O)CN1CCOCC1)C(=O)N[C@@H](Cc1ccccc1)C(=O)N[C@@H](CC(C)C)C(=O)[C@@]1(C)CO1 [Carfilzomib (PR-171)],active: -7.18
17,O=S(=O)(c1ccccc1)c1cnc2c(N3CCNCC3)cccc2c1,inactive: -0.35
18,CC(=O)OCOC(=O)CN(CC(=O)OCOC(C)=O)c1ccccc1OCCOc1ccccc1N(CC(=O)OCOC(C)=O)CC(=O)OCOC(C)=O,inactive: -0.526
19,CN1CCCCC1CCN1c2ccccc2Sc2ccc([S+](C)[O-])cc21 (stereo not given) [Mesoridazine Besylate],inactive: -0.482
20,COc1cc(OC)c(C=C2C(=O)Nc3ccccc32)c(OC)c1,active: -3.07
21,CN1CCCC(n2nc(Cc3ccc(Cl)cc3)c3ccccc3c2=O)CC1 (stereo not given) [Azelastine HCl],inactive: 0.175
22,CN(C)CCC[C@@]1(c2ccc(F)cc2)OCc2cc(C#N)ccc21 [Escitalopram Oxalate],inactive: 1.51

row,Structure (SMILES),nuclei number (z-score)
1,CCCC(=O)Nc1ncnc2c1ncn2[C@@H]1O[C@@H]2COP(=O)(O)O[C@H]2[C@H]1OC(=O)CCC [Dibutyryl-cAMP (Bucladesine)],inactive: 0.0233
2,CC1=CC(=O)NS(=O)(=O)O1 [Acesulfame Potassium],inactive: 0.0624
3,COC1=CC(c2cc3ccccc3[nH]2)=N/C1=C\c1[nH]c(C)cc1C [Obatoclax Mesylate (GX15-070)],active: -2.64
4,CC(C)C[C@@H](C=O)NC(=O)[C@H](CC(C)C)NC(=O)[C@H](CC(C)C)NC(=O)OCc1ccccc1,active: -7.88
5,CC(=O)Oc1cccc2c1C(=O)c1c(OC(C)=O)cc(C(=O)O)cc1C2=O [Diacerein],inactive: 0.111
6,CCN(CC)Cc1ccc2cc(COC(=O)Nc3ccc(C(=O)NO)cc3)ccc2c1 [Givinostat (ITF2357)],active: -6.5
7,CC(C)(C#N)c1ccc(N2C(=O)OCc3cnc4ccc(-c5cnc6ccccc6c5)cc4c32)cc1,inactive: 0.548
8,N=C(N)NC(=N)N1CCOCC1 [Moroxydine HCl],inactive: 0.797
9,COc1ccc(NS(=O)(=O)c2ccc(N)cc2)nn1 [Sulfamethoxypyridazine],inactive: 0.404
10,Nc1ccc(C(=O)NCC(=O)O)cc1 [4-Aminohippuric Acid],inactive: 0.49
11,Nc1ccc(C(=O)NCC(=O)O)cc1 [Sodium 4-aminohippurate Hydrate],inactive: -0.348
12,Cn1ncc(Cl)c1-c1cc(C(=O)N[C@H](CN)Cc2ccc(F)c(F)c2)oc1Cl,active: -6.86
13,CCC[C@H](N[C@@H](C)C(=O)N1[C@H](C(=O)O)C[C@@H]2CCCC[C@@H]21)C(=O)OCC [Perindopril Erbumine],inactive: 0.636
14,CCCC(=O)O[C@]1(C(=O)COC(C)=O)CC[C@H]2[C@@H]3C[C@H](F)C4=CC(=O)C=C[C@]4(C)[C@@]3(F)[C@@H](O)C[C@@]21C [Difluprednate],inactive: 0.662
15,"CC1(C)OC(=O)NC1=O [5,5-Dimethyloxazolidine-2,4-dione]",inactive: 5.12
16,CN(C)CCc1c[nH]c2ccc(Cn3cncn3)cc12 [Rizatriptan Benzoate],inactive: -0.341
17,Nc1ccc(S(=O)(=O)c2ccc(N)cc2)cc1 [Dapson],inactive: 0.415
18,OC[C@H]1O[C@@H](Oc2ccc(O)cc2)[C@H](O)[C@@H](O)[C@@H]1O [Arbutin],inactive: 0.171
19,O=C(c1ccc(C(=O)N2CCC(N3CCCC3)CC2)c(Nc2ccccc2)c1)N1CCC(N2CCCC2)CC1,inactive: 0.418
20,COc1ccc(-c2oc3c(CC=C(C)C)c(O[C@@H]4O[C@H](CO)[C@@H](O)[C@H](O)[C@H]4O)cc(O)c3c(=O)c2O[C@@H]2O[C@@H](C)[C@H](O)[C@@H](O)[C@H]2O)cc1 [Icariin],inactive: 5.53
21,C[C@H]1[C@@H](O)O[C@@H]2O[C@@]3(C)CC[C@H]4[C@H](C)CC[C@@H]1[C@@]24OO3 [Dihydroartemisinin (DHA)],inactive: 3.12
